In all, about 310,000 compounds went through this assay and about 11,000 (3.5%) were called active. The inconclusive results got no clear call from the source; some entries with a clear call stand among them for comparison. The call rests on the fitted dose curve; in most records, active means well fitted inhibition curve with a large enough effect; inconclusive means small, poorly fitted or top-dose-only effect, or effect the other way; inactive means flat fitted curve, though single readings scatter. No potency is given beside an inconclusive call; the fits are too rough.
Assay: VP16 counterscreen qHTS for inhibitors of ROR gamma transcriptional activity;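 further: Gal4-VP16 expression switched on by copper sulfate through the metallothionein promoter; nearly all actives have a fitted effect of over 50% in size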
Settings: Drosophila S2 Gal4-VP16 UAS-luciferase, luminescence, 20 h; activity, negative = inhibition: at 53.6 µM (top of the series)
On the % scale 0 is the no-effect control and ±100 the full control effect; potency means the concentration at half of the fitted maximal effect; tags describe the fitted curve by direction and shape.

SMILES | activity, negative = inhibition | Potency
C=C(C)COc1ccc(-c2ncnc(C(F)(F)F)c2-c2ccccc2)c(O)c1 | inactive: -10.5% | 
C/C(=N\Nc1nc(N)cc(Cl)n1)c1ccc(F)cc1 |  | inconclusive [activator, single point]
CCS(=O)(=O)Nc1ccc(C2=NN(C(C)=O)C(c3cccs3)C2)cc1 (stereo not drawn) |  | inconclusive [activator, full curve, poor fit]
S=c1[nH]nc(CCSCc2ccccc2)n1-c1ccccc1 | inactive: 1.32% | 
COc1ccccc1NC(=S)N/N=C1\CC(C)(C)Oc2ccc(O)cc21 |  | inconclusive [inhibitor, single point]
Cc1cc(N(CCO)CCO)ccc1C(c1ccc(N(CCO)CCO)cc1C)c1ccccc1Cl |  | inconclusive [inhibitor, single point]
COc1ccccc1NC(=O)CN1CCN(CC(=O)Nc2ccc(F)cc2)CC1 | inactive: 5.26% | 
O=[N+]([O-])c1ccc(N(c2ccccc2)c2ccccc2)cc1 |  | inconclusive [inhibitor, partial curve]
CCNc1nc(Cl)nc(NNC(=O)C(C)Oc2ccccc2)n1 (stereo not drawn) |  | inconclusive [activator, single point]
CCCOCC(O)CC(Cc1ccccc1)C(=O)NN (stereo not drawn) | inactive: -1.07% | 
CNC(=S)N/N=C(\C)c1ccc(-n2ccnc2)cc1 |  | inconclusive [inhibitor, single point]
COc1ccc(OC)c(Nc2ncnc3c2cnn3-c2cccc(C)c2)c1 | inactive: -4.6% | 
CCN(CC)C(=O)CSc1nc2ccccc2c(=O)n1CCC(=O)NCCc1ccc(OC)c(OC)c1 | inactive: 8.3% | 
CCC(C)C(NC(=O)C1CCC(C)CC1)C(=O)Nc1cc(OC)ccc1OC (stereo not drawn) | inactive: -7.66% | 
O=C(c1cccc(F)c1)N1CCC2(CC1)CN(c1ccccc1)C2 | inactive: 6.83% | 
O=C(Nc1ccsc1C(=O)O)c1cccc(Oc2ccccc2)c1 |  | inconclusive [inhibitor, single point]
O=C(CSC1=NCCS1)Nc1nc2ccccc2s1 |  | inconclusive [inhibitor, single point]
COC(=O)C1=C(C)N(Cc2ccccc2)C(=NCc2ccc(OC)cc2)N[C@H]1c1ccc(Br)cc1 | inactive: 0.293% | 
O=C(N/N=C/C(Br)=C\c1ccccc1)c1ccc2nc[nH]c2c1 |  | active: 7.94 µM
Cc1c(Cl)cccc1NC(=S)NC1CCCC1 |  | active: 5.62 µM
Cc1cc(Nc2ccc(Br)cc2)nc(-c2ccccc2O)n1 | inactive: -14.9% | 
COc1ccc(-c2csc3nc(-c4ccccc4)oc(=O)c23)cc1OC |  | inconclusive [inhibitor, single point]
C/C=C\C1=CCCC1Nc1ncnc2ccc(-c3c(C)noc3C)cc12 (stereo not drawn) |  | inconclusive [inhibitor, single point]
COc1cc(CC(=O)O)ccc1OCc1ccccc1 | inactive: 4.98% | 
N/C(=N\OC(=O)c1cc([N+](=O)[O-])ccc1Cl)c1ccccn1 |  | inconclusive [inhibitor, partial curve]

SMILES | activity, negative = inhibition | Potency
CCN(CC)C(=O)Cn1c(=O)n(Cc2ccc(F)cc2)c(=O)c2sccc21 | inactive: -8.13% | 
N/C(=N\OC(=O)c1cccs1)c1cccc([N+](=O)[O-])c1 |  | inconclusive [activator, full curve, poor fit]
O=C(NCCCN1CCN(CCCNC(=O)c2cc([N+](=O)[O-])ccc2Cl)CC1)c1cc([N+](=O)[O-])ccc1Cl | inactive: -4.07% | 
CCOC(=O)CN1NC2(CCCCC2)NC1=S |  | inconclusive [inhibitor, partial curve, poor fit]
O=C(Cc1ccc(Cl)cc1)Nc1ccc2oc(-c3ccncc3)nc2c1 |  | inconclusive [inhibitor, single point]
Cc1ccccc1Oc1cc(-n2ncc(Cl)c(Cl)c2=O)ncn1 |  | active: 3.16 µM
CCCCC(=O)OC1CCC2C3CCc4cc(O)ccc4C3CC[C@]12C (stereo partly drawn) |  | inconclusive [inhibitor, single point]
CCOc1ccc(C(=O)Nc2cccc(C(=O)O)c2C)cc1Cl |  | active: 1.58 µM
Cc1cc(Br)ccc1NC(=O)CNC(=O)Cn1ncc(Cl)c(Cl)c1=O |  | inconclusive [inhibitor, single point]
CCOC(=O)c1ccc(NC(=S)NCCc2ccc(OC)c(OC)c2)cc1 |  | inconclusive [inhibitor, single point]
C[C@H](NC(=O)c1nc[nH]c1C(=O)N[C@@H](Cc1ccccc1)C(=O)OC(C)(C)C)C(=O)OC(C)(C)C |  | inconclusive [inhibitor, single point]
O=C(CC1C(=O)NCCN1Cc1ccc(Cl)c(F)c1)NCCc1cccnc1 (stereo not drawn) |  | inconclusive [inhibitor, full curve]
CSc1ccccc1NC(=O)Cc1ccccc1 | inactive: 16.8% | 
CC(=O)N1CCC(=NNS(=O)(=O)c2ccc(C)c([N+](=O)[O-])c2)CC1 | inactive: -2.03% | 
CC(=O)N1N=C(c2ccccc2)CC1c1cn(Cc2ccccc2)c2ccccc12 (stereo not drawn) |  | inconclusive [inhibitor, single point]
Oc1ccc(NCc2cccs2)cc1 |  | inconclusive [inhibitor, single point]
Cc1ccc2nc(N/N=C/c3ccccc3F)nc(-c3ccccc3)c2c1 |  | active: 11.2 µM
O=c1[nH]c(CN(CCc2ccccc2)S(=O)(=O)c2ccc(Cl)cc2)nc2ccccc12 |  | active: 6.31 µM
C/C(=N\Nc1nc(Cl)c(Cl)cc1Cl)c1ccc(S(=O)(=O)NCc2ccco2)cc1 |  | inconclusive [inhibitor, single point]
Cc1cc(C)nc(SCC(=O)c2ccc(O)cc2O)n1 |  | inconclusive [inhibitor, single point]
O=C1OCC2=C1C(c1ccc3c(c1)OCO3)Sc1ccccc1N2 (stereo not drawn) |  | active: 14.1 µM
Cc1nn(-c2nc3ccccc3[nH]2)c(N)c1-c1ccc(Cl)cc1 |  | active: 3.16 µM
Cc1c(NC(=O)c2cc(-n3cnnc3)ccc2Cl)cccc1-c1nc2ccccc2s1 |  | inconclusive [inhibitor, partial curve, poor fit]
Cn1c(=O)c2c([nH]c(=S)n2Cc2ccc(Cl)cc2)n(C)c1=O |  | inconclusive [inhibitor, single point]
C/C(CC(=O)Nc1ccc(N(C)C)cc1)=N\NC(=O)c1ccc([N+](=O)[O-])cc1 |  | inconclusive [inhibitor, single point]

SMILES | activity, negative = inhibition | Potency
CC(=NC1CC1)c1c(-c2ccccc2)[nH]n(-c2nc3ccccc3s2)c1=O |  | inconclusive [inhibitor, single point]
O=C(CCN1C(=O)c2ccccc2C1=O)NC(=S)Nc1ccccc1 |  | inconclusive [inhibitor, single point]
COc1cc(C(C(=O)NC2CCCCC2)N(C(=O)Cc2c[nH]c3ccccc23)c2ccc(C)cc2)cc(OC)c1OC (stereo not drawn) | inactive: -5.99% | 
Cc1ccc2cc(C)c3nnc(SCC(=O)N4CCCc5ccccc54)n3c2c1C |  | inconclusive [inhibitor, single point]
Cc1cc(NC(=O)CN2C(=O)/C(=C/c3ccccc3F)SC2=S)no1 |  | inconclusive [activator, single point]
Cc1ccccc1OCC(=O)NCCC1=CCCCC1 |  | inconclusive [inhibitor, single point]
CCOc1ccc(Nc2nc(N)nc(CSC(=S)N3CCN(c4ccccc4)CC3)n2)cc1 | inactive: 9.75% | 
COc1ccccc1CNC(=O)CSc1nn2c(=O)c(C(C)(C)C)nnc2s1 |  | inconclusive [inhibitor, single point]
CN(C)c1ccc(-c2nccc(NCCN3CCOCC3)n2)cc1 |  | inconclusive [inhibitor, single point]
Cc1nc(N2CCOCC2)[nH]c(=O)c1C(O)C(Cl)(Cl)Cl (stereo not drawn) | inactive: -25.5% | 
COc1ccc(NS(=O)(=O)c2ccc(NC(=O)C3CCCO3)cc2)cc1 (stereo not drawn) | inactive: -8.31% | 
CC(C)N(Cc1ccccc1)C(=S)NC1CCCCC1 |  | inconclusive [inhibitor, single point]
CC(C)Sc1ncnc2c1cnn2-c1ccccc1 |  | inconclusive [inhibitor, single point]
O=C(CCl)Nc1c2c(nn1-c1ccccc1)CSC2 |  | inconclusive [inhibitor, single point]
S=C1NNC2(NN1)C1CC3CC(C1)CC2C3 |  | inconclusive [inhibitor, single point]
COc1ccc(N2CCN(S(=O)(=O)c3cccs3)CC2)cc1 |  | inconclusive [activator, single point]
CCn1c(O)c(C=Nc2ccccc2)oc1=S |  | inconclusive [activator, single point]
CCOc1ccccc1N1CCN(S(=O)(=O)c2cc(C)ccc2OC)CC1 |  | inconclusive [inhibitor, single point]
COCCNC(=O)CN1C(=O)/C(=C/c2ccccc2)Oc2ccc(C(C)(C)C)cc21 | inactive: -8.08% | 
CCCCCC(=O)Nc1nc(C)c(-c2csc(Nc3cc(OC)ccc3OC)n2)s1 | inactive: -11.2% | 
CC(C)c1ccc(NC2CCCN(C(=O)CSc3nncn3C)C2)cc1 (stereo not drawn) | inactive: 6.37% | 
CC(/C=N/n1c(-c2cc(C)[nH]n2)n[nH]c1=S)=C\c1ccccc1 |  | inconclusive [inhibitor, single point]
COc1cccc2c1Oc1ncccc1N(C(=O)CCC(=O)NCc1cccc(C)c1)C2 |  | inconclusive [inhibitor, single point]

Reference: PubChem BioAssay AID2546 (National Center for Advancing Translational Sciences (NCATS), 2010)
